# Measured values: the supplement of paper PMC11417369
# This is one part of the list.
# System: PfAP2-HC AP2 domain (GST-tagged)
# Test: gcPBM binding intensity (ln(normalized median fluorescence intensity)); higher = stronger DNA binding
# Method in brief: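 In this array assay, P. falciparum DNA-binding domains with a GST tag, expressed in E. coli, were applied for 1 h to primer-extended double-stranded 36-bp intergenic genomic probes and negative controls on an Agilent 4 × 180k array. Bound protein was visualised with Alexa488 anti-GST antibody at 488 nm. Binding intensity is the highest Masliner-normalised natural-log median intensity across replicate spots of either probe orientation.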
row,Sequence,gcPBM binding intensity (ln)
1,ATATATATATATATTTATTCATATATTTTTTGTCTT [TGCATGCA_negctrl_site58],9.52
2,TAAAGAAACGCATCGACGCACACTACAAAATAAAAA [CACACA_site1348],9.84
3,TTTTTATTTTTTCAGTGTACATTTAAATTATCTTAT [XGTACX_site3905],9.75
4,AAATAAATACATAATACATGCATATTTAATATATAG [TGCATGCA_site135],9.84
5,GTACAATCATATACTACATGCAGTTTTTTTTATTGA [TGCATGCA_site230],9.72
6,AATTTTTTTTAATGATGTACTTTTTGAAAATAAACT [XGTACX_site4221],9.31
7,TTTTCTTTTTCTTGTACACACATAATATGGATGAAA [CACACA_site808],9.66
8,TAGATATATAAATACACACACATACACAAAAAAAAA [CACACA_site7652],10.3
9,AAATAATTTATGCATACACACATATATATATATATA [CACACA_site4020],9.89
10,TTACTTTTTTTTTTATGTACTTATATTTTTTACACT [XGTACX_site3503],10.2
11,TATGAATACATTTGTTGTACTTAAATTTCCTTTATT [XGTACX_site5374],9.68
12,TATAAATATCTGAATTGTACAGGTGAAAAAAAAAAT [XGTACX_site1867],9.71
13,TTTTTTATTATTATTATTTTTTATGTATAATAATGT [CACACA_negctrl_site631],9.62
14,TTTCTATTCCATTCAACACACAAAAATGTATGCTTT [CACACA_site1072],9.86
15,AATGGATATTTCTTTATATATATCTTATTTGATTAT [XGTACX_negctrl_site284],9.53
16,TATAAACGTATAATATGTACACACACATATATACAA [XGTACX_site1686],9.89
17,ATTATATAGAATTGTACATGCGAATTGTATAACGAT [TGCATGCA_site125],9.76
18,AAAAAAAAAAAAAAAAATATATTTATGAAATAAAAA [TGCATGCA_negctrl_site262],9.28
19,TATTTTTTTTTTTTTTTTTTTTTTATATATACATAT [CACACA_negctrl_site23],9.69
20,GAAGAAGTTTAAAAAGCACACAAAAAAAAAAAAAAA [CACACA_site9088],9.3
21,CACAAAATAAATTAAACACACAACATCATATATGTA [CACACA_site846],10.3
22,TATTTATAAACATACGCACACATTAATATATATATA [CACACA_site9314],9.89

row,Sequence,gcPBM binding intensity (ln)
1,TAAATTATTATCCCCTCACACACAAAAATAAAAAGA [CACACA_site2886],10.3
2,CTTGTAGATATAAAATGTACAAAAATAAATTGCACA [XGTACX_site4409],9.56
3,ATTATTATTAATCTTGTGCACATATATTTTAATTAG,9.74
4,AGATATTCTACTATGTGTACATATATATATATAATT [XGTACX_site5060],9.8
5,TTTTTCTTTCTATTTATCAATATTAAAAAAAAAAAA [CACACA_negctrl_site1629],8.89
6,TTTTTTCAAATTTTCTTTTTTCTTTTGTTTTTTTTG [CACACA_negctrl_site380],9.48
7,TATACATGTATATATTGTACATATGTTTTTTTTACA [XGTACX_site3300],9.65
8,TTACTCATGAAAGATACACACATTCGTTATTTATAT [CACACA_site7517],9.89
9,TTTTTATAATGATACATATATTATTTTATTCTTAAT [CACACA_negctrl_site124],9.54
10,TAATGTTTCAAAATTTAATATACTACAAATATTATA [TGCATGCA_negctrl_site336],9.34
11,ATGAACATCCAATATACACACATATATATTTATATT [CACACA_site829],9.93
12,TTTATATAGAAACACACACACAAAAAAAAAAAAAAA [CACACA_site2646],10.1
13,TTACAAAAAAAAAGGCGCGGATGGGGGCAATAGCAA [CACACA_negctrl_site238],10.4
14,CAAAAAAAAAAAAAAACACACATTAAATTATAAAGA [CACACA_site2613],9.66
15,TAAGATATAAAAAATGTGCACATTAAAGTATTAATT,9.86
16,TGTTATTCTGCATATACACACAAATAACAATTTAAA [CACACA_site6943],9.54
17,TCTTATGATGGAATGTTAAATATTACATTTTGTTTA [TGCATGCA_negctrl_site503],9.58
18,CATTTCATTAATAAATGTACTTGTGAAGAGAAAAAG [XGTACX_site3115],9.47
19,TATATGTGGGTTTTTTTTATGTGTTTTTCTTTTTTT [CACACA_negctrl_site936],10
20,AAAAGATAAAAAGAAGTGCATAATAGGAACAAATAT [GTGCAC_site9717],9.92
21,ACAAAATTTACAAAATGTACAAAATATACAAAATGT [XGTACX_site3543],9.69
22,TTTACATTTTAGGAAGTGCATATAATAAATACTATC,9.49

row,Sequence,gcPBM binding intensity (ln)
1,CACATATATACACATACACACACACCCATACACCCA [CACACA_site8505],11
2,TACATAAATACATACACACACATATAACCAATGTAG [CACACA_site5243],10.2
3,ATCACATTCCACGGTACACACTAAAAGAAAAATCAG [CACACA_site5907],9.69
4,ATTTATATTTAATATACACACATTATTTTTTTATAT [CACACA_site574],9.91
5,AGAGTACAAGTAAATACACACATATATATGAAAATA [CACACA_site1079],10
6,ATATAATATTTTAGAGTGCACCGATAACAATAAATA [GTGCAC_site9754],9.7
7,TATAATATGACAAGAAGTACATATATTTACATATAT [XGTACX_site1571],9.63
8,CAAGTATTATATTGCGCATGCAAAGAAGGACACAAA [TGCATGCA_site1024],9.96
9,TTATCTAGTACATACATACACACAACCATGTTATGA [CACACA_site3988],9.78
10,ATATATATATATATATATATAATAAAAGATCATTTA [XGTACX_negctrl_site371],9.64
11,ATAATAAAAAGAAAAAGTACAAATGATTATGTTTGA [XGTACX_site3615],10
12,TACTTTATTTTTTATACACACACAATATGTATATAT [CACACA_site9184],10
13,GTATTTCTTTAATATACACACACCAAAACAAAAAAA [CACACA_site579],10.2
14,AATAAATAAATAAGTACACACATATAAATATAAATA [CACACA_site6271],9.96
15,TTCTACATGAAGTTATAAATTAATATTTTAATTTAT [XGTACX_negctrl_site134],9.17
16,ATAAGGATCAGACACAAACACACATATATATATATA [CACACA_site558],10.6
17,ATAATTAATCCAAAATGTACTTACATTTTATATGAA [XGTACX_site8888],9.55
18,AAATAATTCATATGTTGTACAGTAATTAAATTTTCT [XGTACX_site6343],9.61
19,TTTTATAATTTATCTAAAAAAAAATAAAATAAAATG [TGCATGCA_negctrl_site429],8.94
20,ATAAAATAAAATAAAAGTACATAAATATATATATAT [XGTACX_site6110],9.82
21,TTTTTTTTTCTTTGCACACAGATAACTTGAAATTTG [CACACA_site2185],9.9
22,ACATATATATATATTACACACACACTAATAAAATAA [CACACA_site7920],10.3

row,Sequence,gcPBM binding intensity (ln)
1,TTTCAAGAATTATATAAACACACATACATACACCCA [CACACA_site8592],10.1
2,AATAATATATATTACTGTACTAATATAAGGGACATC [XGTACX_site3744],9.83
3,TTATTTTCTACAAATTGTACATATTTTTTACTACTC [XGTACX_site1394],10
4,ATTTATGAAAAAAATACATGCATGTCCATATAAATT [TGCATGCA_site505],9.8
5,TTGTCAAAAATTACACACATAAATGAATAAATAAAT [XGTACX_negctrl_site541],9.84
6,TCTTTCTATTAAACATGTACTTGTCTAAAGACATAA [XGTACX_site8564],9.28
7,CGAATAAATATATGTAGTACATGTTGTAGATAATTT [XGTACX_site1218],9.79
8,TATATATATTTAAATTGTACATATATTATTCATATG [XGTACX_site911],9.59
9,AAAAAAAAAAAAAAAAGTACAAATTTAAAAATGTGT [XGTACX_site112],9.44
10,TTGGTTTCTTGTTTTTGTACCCATAATTTGTAATAT [XGTACX_site1248],9.78
11,AATAATAAAATAAAAGTGCATTAATTATAATTCTTT [GTGCAC_site9491],9.65
12,AATTATAATAATAATAGTACATAAGTATATAAATAA [XGTACX_site2400],9.89
13,TCTTTCTAAATCTTACAAATTACTAAAATATTTATA [CACACA_negctrl_site87],9.41
14,GAGGAAAAAAAAAAAAGTACATTATATAAGAAAATT [XGTACX_site2610],9.45
15,TTAAATATTTATATTTGTACACAATCAATCATACAC [XGTACX_site5793],9.64
16,TTGTTATGCATTGGTTGTACATAAGTATAAGTAATT [XGTACX_site5401],9.65
17,ATATATATATTTTATTGTACAAAAAAAAAAAAAAAA [XGTACX_site6803],9.13
18,ATAGGATTCTCAAAGTGTACTTGTCTACTGTAGTTT [XGTACX_site4202],9.58
19,TTTGTTTGTAAAATGTTGCACTTTCTTTTGCTGATA,9.66
20,AAAAAAAAAATATGTACACACATATAAAATACATAA [CACACA_site6869],9.97
21,CCATTATACACAATATGTACATATATATAATCATTT [XGTACX_site7942],9.69
22,TGTTTTGTTATTTTTATTTATATAAATAAAGCTATA [GTGCAC_negctrl_site88],9.59
